{"source": "the supplement of paper PMC11417369", "note": "The list shows a part of the results.", "data": [{"test_system": "PfSIP2 AP2 domain 1 (GST-tagged)", "experiment": "gcPBM binding intensity (ln(normalized median fluorescence intensity)); higher = stronger DNA binding", "outline": "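An Agilent 4 × 180k array of primer-extended double-stranded 36-bp intergenic genomic probes, with negative controls, was incubated for 1 h with GST-tagged P. falciparum DNA-binding domains expressed in E. coli. Alexa488 anti-GST antibody detected bound protein, scanned at 488 nm. Binding intensity is the highest Masliner-normalised natural-log median intensity across replicate spots of either probe orientation.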", "values": [{"sequence": "ATTTATTTATATAGAAGTACATATTTATTTATATAT [XGTACX_site6283]", "gcPBM binding intensity (ln)": 6.99}, {"sequence": "CTTTTTTAAATTATTGCACACAAAAATGAAAGGAAA [CACACA_site8412]", "gcPBM binding intensity (ln)": 7.25}, {"sequence": "ACATCAAGCAGACACACACACACACCCACCCACCGA [CACACA_site371]", "gcPBM binding intensity (ln)": 7.1}, {"sequence": "TAATAAAAGATATATACACACAAATAAATAAATAAA [CACACA_site7818]", "gcPBM binding intensity (ln)": 7.08}, {"sequence": "AAAAAAAAATATATATATATATATATAAATAAATTT [CACACA_negctrl_site519]", "gcPBM binding intensity (ln)": 7.45}, {"sequence": "ATAATATAAACATATTGTACACATATATTGCTATTT [XGTACX_site2799]", "gcPBM binding intensity (ln)": 7}, {"sequence": "AAATATAAAAAAAATATATAATTTTTACATCGAATT [CACACA_negctrl_site544]", "gcPBM binding intensity (ln)": 6.81}, {"sequence": "TTCTATGAATTCATAGTGCAAATGAGTTATTTTTTC [GTGCAC_site9709]", "gcPBM binding intensity (ln)": 7.41}, {"sequence": "TTATTATTGTTATGTTGTACTTTTACAAACTTTTTG [XGTACX_site8797]", "gcPBM binding intensity (ln)": 7.15}, {"sequence": "AAGAAAATAGGGTTCATAGGATTATACTTTTGGAAT [TGCATGCA_negctrl_site80]", "gcPBM binding intensity (ln)": 6.61}, {"sequence": "TCGTTTCCTTAAAATTGTACTTTTTTTTTTTTTTTT [XGTACX_site64]", "gcPBM binding intensity (ln)": 7.63}, {"sequence": "TATTATAAAGAAATTACACACATGCAATGAAAAAAA [CACACA_site1697]", "gcPBM binding intensity (ln)": 6.88}, {"sequence": "AGAGTATATATATATGCATGCATATCTCATATTTAT [TGCATGCA_site509]", "gcPBM binding intensity (ln)": 7.07}, {"sequence": "TAATGATAAATACATACACACAAAAAATAATATATA [CACACA_site2576]", "gcPBM binding intensity (ln)": 6.85}, {"sequence": "TGTTATTATTTGTACACACACATATAGATCCTTGTT [CACACA_site7667]", "gcPBM binding intensity (ln)": 7.17}, {"sequence": "ATTAAAGAGATATATACACACATTATGGGGGAATAA [CACACA_site6226]", "gcPBM binding intensity (ln)": 7.45}, {"sequence": "TGAGGAAACATGAGATGTACATATAAATTTTTTTTT [XGTACX_site2595]", "gcPBM binding intensity (ln)": 6.71}, {"sequence": "CCTAAATATTTTTTATGTACATATTTATCTAAATTT [XGTACX_site6835]", "gcPBM binding intensity (ln)": 7.13}, {"sequence": "ATAGAAATTATAAATAGTACATAATAAAAATGAGCA [XGTACX_site822]", "gcPBM binding intensity (ln)": 7.25}, {"sequence": "TAAGAAATAAATAGTACACACATAGACACCCACCCA [CACACA_site8429]", "gcPBM binding intensity (ln)": 7.39}, {"sequence": "AAACAAAATGGTAACACACACATATATAAATATGTA [CACACA_site6994]", "gcPBM binding intensity (ln)": 6.89}, {"sequence": "AAAAAAAATAGACACACACACATACACATAAATATA [CACACA_site7742]", "gcPBM binding intensity (ln)": 7.01}, {"sequence": "AGGGTTACAAGAGGAACACACAAAAAAATAAATAAA [CACACA_site1436]", "gcPBM binding intensity (ln)": 6.88}, {"sequence": "ATTAAATCTATATATACACACATGTTTGGTATATTC [CACACA_site2657]", "gcPBM binding intensity (ln)": 7.06}, {"sequence": "TTTGTAATAAACTACTTTTTTTTTTTTTTTTTTTTT [CACACA_negctrl_site571]", "gcPBM binding intensity (ln)": 8.36}, {"sequence": "TTTATATTACAATAATATATTAAAAAATAAAATATA [TGCATGCA_negctrl_site18]", "gcPBM binding intensity (ln)": 6.87}, {"sequence": "CGATTACTAATTTTTAGTACATATAATCAATATGTA [XGTACX_site7857]", "gcPBM binding intensity (ln)": 6.89}, {"sequence": "ATCTATTTCTATTGTTGTACTTATTTTTCATTGTTT [XGTACX_site6942]", "gcPBM binding intensity (ln)": 7.27}, {"sequence": "ATGTAGCCTTACGCTTGTACGAATATCTTAATTTTT [XGTACX_site4331]", "gcPBM binding intensity (ln)": 6.82}, {"sequence": "TTCATATAAATACATGCACACAAAAATATCAATACA [CACACA_site8753]", "gcPBM binding intensity (ln)": 8.38}, {"sequence": "ATATATTTTATTACCAGTACATATATTAAAATAATA [XGTACX_site8440]", "gcPBM binding intensity (ln)": 7.22}, {"sequence": "TATACAATATAAAATACACACGCACCCAAAAAAAAA [CACACA_site9174]", "gcPBM binding intensity (ln)": 10.4}, {"sequence": "ATTTTTTTATTTGATTGTACAATTTTCTTTCAAAAT [XGTACX_site2902]", "gcPBM binding intensity (ln)": 7.19}, {"sequence": "ATATAATGTGTAGGCCGTATTTACGTTTGGCAATCA [CACACA_negctrl_site1130]", "gcPBM binding intensity (ln)": 6.97}, {"sequence": "TATAATATAATATATATATATATATATATATAAGAA [CACACA_negctrl_site78]", "gcPBM binding intensity (ln)": 7.66}, {"sequence": "ATATAGGTAATATTTTGTACATATTTTTGGGGTAGT [XGTACX_site5634]", "gcPBM binding intensity (ln)": 7.3}, {"sequence": "AATTCTTTTTTCAACACACACACACCCGAAAATATA [CACACA_site3111]", "gcPBM binding intensity (ln)": 7.36}, {"sequence": "ATATTTTTTGTATGTTGTACATAAAATATACATTTT [XGTACX_site6815]", "gcPBM binding intensity (ln)": 7.01}, {"sequence": "AGATACTTTTTTAAAAGTACAAAAACTTTCGATATA [XGTACX_site959]", "gcPBM binding intensity (ln)": 6.99}, {"sequence": "CATACATACATACATACACACATACATATATATATA [CACACA_site8388]", "gcPBM binding intensity (ln)": 9.32}, {"sequence": "TCTAAAATAGTCCAGAGTACAAGAAACCATAATATA [XGTACX_site5237]", "gcPBM binding intensity (ln)": 6.8}, {"sequence": "ATAAAAATATAAACATGTACATAAAAATCTATATAT [XGTACX_site405]", "gcPBM binding intensity (ln)": 7.22}, {"sequence": "TTGCTTATATTTCTAAAATGTAAAAGACACAAAGGT [XGTACX_negctrl_site225]", "gcPBM binding intensity (ln)": 7.27}, {"sequence": "TTCTAATATATGCATACACACAAATGTGAATATACA [CACACA_site2142]", "gcPBM binding intensity (ln)": 7.16}, {"sequence": "ATATATTTATTTATATGTACATAATATTTTTCTCAG [XGTACX_site800]", "gcPBM binding intensity (ln)": 7.04}, {"sequence": "AAAAAAAAAAAAAACACACACACACCCAAATATATA [CACACA_site1169]", "gcPBM binding intensity (ln)": 7.4}, {"sequence": "AAAAATGCAATTTAATGTACACATAAGATGTTATTT [XGTACX_site6853]", "gcPBM binding intensity (ln)": 6.93}, {"sequence": "TTTTTTATTACTTTGTGTACTTACACAGAACCTTAT [XGTACX_site6038]", "gcPBM binding intensity (ln)": 7.34}, {"sequence": "ATGTATAAACATATATGTACTTAAATAAAATGTTAA [XGTACX_site4044]", "gcPBM binding intensity (ln)": 7.13}, {"sequence": "AAAAATAAAAAAATAATAAAATAAAAAATAAAAAAT [TGCATGCA_negctrl_site89]", "gcPBM binding intensity (ln)": 6.85}, {"sequence": "TAAAAAAACATATATTGTACGGAGATAATAATTTTT [XGTACX_site2946]", "gcPBM binding intensity (ln)": 6.75}, {"sequence": "TATACTGTCAATTCTACACACCATAGGGGGAGCATA [CACACA_site1875]", "gcPBM binding intensity (ln)": 8.06}, {"sequence": "CACCAATTCATATGCACACACATCTGCATATTATAT [CACACA_site1773]", "gcPBM binding intensity (ln)": 7.43}, {"sequence": "ATTAAAAGAACAATGTAAAAAAAGCAAATTAAAGAT [TGCATGCA_negctrl_site360]", "gcPBM binding intensity (ln)": 7.29}, {"sequence": "TTATTAAATGAAAAATGTACATATAAATGATTATAT [XGTACX_site2788]", "gcPBM binding intensity (ln)": 6.96}, {"sequence": "GAAATGTGTAGACACGCACACACAAAAAAATATATA [CACACA_site2912]", "gcPBM binding intensity (ln)": 6.97}]}]}
